From the supplement of paper PMC5919970 come the findings set out here.

In this assay the test system is TYKNU. As to the kind of experiment: fractional viability relative to vehicle; TYKNU is a high-grade serous ovarian cancer line; higher = less growth inhibition. The note with it: 72 h, genotype: OPA1 knockout (sgOPA1 #2). A digest of the protocol: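 TYKNU control cells or lentiCRISPRv2 knockout derivatives were seeded at 500 cells per well into drug-stamped 384-well plates holding a ~2100-compound library at 2 or 10 μM, in duplicate. Cells were grown at 37 °C in 5% CO2 in RPMI 1640 with 10% FBS, and drug treatment lasted 72 h. Viability was read by Cell Titer Glo luminescence. Duplicate treatment wells were averaged and normalised to duplicate control wells from the same plate position.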

Where a name gives a salt, the structure may show the parent alone. The full ranking holds about 2,000 compounds; the median of “fractional viability relative to vehicle” is about 0.92, and the lowest 2% start at about 0.11. The list shows a part of the results.

As for `CN1CCC(CNc2ccc3ncc(-c4cccc(OC(F)(F)F)c4)n3n2)CC1` [SGI-1776 free base], the fractional viability was 0.888 (2uM) and 0.107 (10uM).
In the same order, the values of `C[C@H](NC(=O)CCc1nc2ccccc2c(=O)[nH]1)c1ccccc1` are 0.861 and 0.876.
In the same order, the values of `NCC(=O)CCC(=O)O` [5-Aminolevulinic acid HCl] are 0.939 and 0.911.
In the same order, the values of `Cc1ccc(Sc2ccccc2N2CCNCC2)c(C)c1` are 0.813 and 0.131.
As to `Cc1ccc(C)c(OCCCC(C)(C)C(=O)O)c1` [Gemfibrozil], the fractional viability reads like this: (2uM) 1.18; (10uM) 1.01.
For `O=C(O)C[C@H](O)C[C@H](O)/C=C/c1c(C2CC2)nc2ccccc2c1-c1ccc(F)cc1` [Pitavastatin Calcium] the same measures were 0.812 and 0.564.
In the same order, the values of `COc1cc2c(cc1OC)[C@@H]1Cc3ccc(OC)c(OC)c3CN1CC2` [Rotundine] are 1.29 and 1.36.
In the same order, the values of `O=C(CCCN1CCC(O)(c2ccc(Cl)cc2)CC1)c1ccc(F)cc1` [Haloperidol] are 1.17 and 0.953.
Turning to `CC1(C)[C@@H](O)CC[C@]2(C)[C@H]3C(=O)C=C4[C@@H]5C[C@@](C)(C(=O)O)CC[C@]5(C)CC[C@@]4(C)[C@]3(C)CC[C@@H]12` [Enoxolone], the fractional viability is 1.11 (2uM) and 1.07 (10uM).
In the same order, the values of `CC1(C)CC(=O)c2c(C(F)(F)F)nn(-c3ccc(C(N)=O)c(N[C@H]4CC[C@H](OC(=O)CN)CC4)c3)c2C1` are 1.1 and 1.08.
For `Oc1ccc(Cc2nc3c(Cc4ccccc4)nc(-c4ccc(O)cc4)cn3c2O)cc1` [Coelenterazine] the same measures were 0.856 and 0.938.
For `C[C@H]1COC2(CCN(c3nc(=O)c4cc(C(F)(F)F)cc([N+](=O)[O-])c4s3)CC2)O1` (racemic) [BTZ043 Racemate], the fractional viability by setting is: (2uM) 1.08; (10uM) 0.876.
In the same order, the values of `O=C(O)c1ccc(-n2nc(-c3ccccc3O)nc2-c2ccccc2O)cc1` [Deferasirox] are 1.37 and 0.791.
For `O=C(NCc1cccc(O)c1)Nc1nc(-c2ccncc2)cs1` the same measures were 1.14 and 1.11.
As for `COC(=O)CCc1ccc(OCC(O)CNC(C)C)cc1` (configuration not stated) [Esmolol HCl], the fractional viability was 0.995 (2uM) and 0.895 (10uM).
In the same order, the values of `COc1c(C)c2c(c(O)c1C/C=C(\C)CCC(=O)OCCN1CCOCC1)C(=O)OC2` [Mycophenolate Mofetil] are 0.91 and 0.648.
For `CN1C(C(=O)Nc2ccccn2)=C(O)c2ccccc2S1(=O)=O` [Piroxicam] the same measures were 1.05 and 1.27.
For `COCCOC(=O)C1=C(C)NC(C)=C(C(=O)OC(C)C)C1c1cccc([N+](=O)[O-])c1` (configuration not stated) [Nimodipine] the same measures were 0.965 and 1.04.
As to `NCCS` [Cysteamine HCl], the fractional viability amounted to 0.741 (2uM) and 0.828 (10uM).
For `COc1nc(C)cnc1NS(=O)(=O)c1cccnc1-c1ccc(-c2nnco2)cc1` [Zibotentan (ZD4054)] the same measures were 1 and 0.979.
`C/C(O)=C(\C#N)C(=O)Nc1ccc(C(F)(F)F)cc1` [Teriflunomide] showed a fractional viability (2uM) of 0.772 and a fractional viability (10uM) of 0.506.
For `Cn1cc(/C=C/C(=O)c2cccc(F)c2)cc1/C=C/C(=O)NO` the same measures were 1.08 and 0.705.
For `Nc1nccc2c1ncn2C1C=C(CO)C(O)C1O` (configuration not stated) [3-Deazaneplanocin A (DZNeP)] the same measures were 0.802 and 0.723.
For `Cc1nc(N(C)C(=O)Cc2ccc(-c3ccccn3)cc2)sc1S(N)(=O)=O` [Pritelivir (BAY 57-1293)] the same measures were 0.924 and 0.791.
Turning to `N[C@@H](CC(=O)N1CCn2c(nnc2C(F)(F)F)C1)Cc1cc(F)c(F)cc1F` [Sitagliptin phosphate monohydrate], the fractional viability is, setting by setting: (2uM) 1.11; (10uM) 1.09.
In the same order, the values of `C[C@@H]1O[C@@H](O[C@H]2[C@H](Oc3cc(O)c4c(c3)O[C@H](c3ccc(O)cc3)CC4=O)O[C@H](CO)[C@@H](O)[C@@H]2O)[C@H](O)[C@H](O)[C@H]1O` [Naringin] are 1.06 and 0.828.
In the case of `C[C@H](CCC(=O)O)[C@H]1CC[C@H]2[C@@H]3C[C@H](O)[C@@H]4C[C@H](O)CC[C@]4(C)[C@H]3CC[C@]12C` [Hyodeoxycholic acid (HDCA)], the fractional viability by setting is: (2uM) 0.888; (10uM) 1.12.
In the same order, the values of `N=C(N)c1ccc(N=NNc2ccc(C(=N)N)cc2)cc1` [Diminazene Aceturate] are 0.879 and 0.912.
For `CC(C)(C)OC(=O)N[C@H]1CCCCC/C=C\[C@@H]2C[C@@]2(C(=O)NS(=O)(=O)C2CC2)NC(=O)[C@@H]2C[C@@H](OC(=O)N3Cc4cccc(F)c4C3)CN2C1=O` [Danoprevir (ITMN-191)], the fractional viability came out at 1.22 (2uM) and 1.08 (10uM).
Take `NC(=O)Nc1sc(-c2ccc(F)cc2)cc1C(N)=O`: the fractional viability runs as follows: (2uM) 0.79; (10uM) 0.609.
For `C[C@@H]1O[C@@H](OC[C@H]2O[C@@H](Oc3c(-c4ccc(O)c(O)c4)oc4cc(O)cc(O)c4c3=O)[C@H](O)[C@@H](O)[C@@H]2O)[C@H](O)[C@H](O)[C@H]1O` [Rutin] the same measures were 1.06 and 1.09.
In the same order, the values of `Cc1nn(C)c(COc2ccc(N3CCN(S(=O)(=O)N(C)C)CC3)cc2)c1-c1cccc2c(CCCOc3cccc4ccccc34)c(C(=O)O)n(CCN3CCOCC3)c12` are 0.854 and 0.778.
Consider `CCCC(=O)Nc1ccc(OCC(O)CNC(C)C)c(C(C)=O)c1` (configuration not stated) [Acebutolol HCl], for which the fractional viability (2uM) stood at 1.04 and the fractional viability (10uM) is 0.998.
In the same order, the values of `CN1[C@@H]2CC[C@H]1C[C@@H](OC(c1ccccc1)c1ccccc1)C2` [Benztropine mesylate] are 1.01 and 0.719.
For `CCCc1nc2c(C)cc(-c3nc4ccccc4n3C)cc2n1Cc1ccc(-c2ccccc2C(=O)O)cc1` [Telmisartan] the same measures were 1.13 and 1.15.
In the same order, the values of `COCCCOc1cc(C[C@@H](C[C@H](N)[C@@H](O)C[C@H](C(=O)NCC(C)(C)C(N)=O)C(C)C)C(C)C)ccc1OC` [Aliskiren Hemifumarate] are 1.13 and 0.937.
On to `CC1=CC(=O)c2ccccc2C1=O` [Menadione], for which the fractional viability (2uM) is 0.94 and the fractional viability (10uM) worked out at 0.75.
Consider `CC(=O)/N=c1/sc(S(N)(=O)=O)nn1C` [Methazolamide], for which the fractional viability worked out at 1.06 (2uM) and 0.877 (10uM).
In the same order, the values of `Cc1ccc(C(=O)N(CCCN)[C@@H](c2nc3cc(Cl)ccc3c(=O)n2Cc2ccccc2)C(C)C)cc1` are 0.71 and 0.309.
In the same order, the values of `COc1cc2ncnc(Nc3ccc(F)c(Cl)c3)c2cc1NC(=O)/C=C/CN1CCCCC1` are 0.824 and 0.135.
For `CCCCC1C(=O)N(c2ccccc2)N(c2ccccc2)C1=O` [Phenylbutazone] the same measures were 0.963 and 1.36.
Regarding `Nc1ncnc2c1nc(Br)n2[C@@H]1O[C@@H]2COP(=O)(O)O[C@H]2[C@H]1O` [8-Bromo-cAMP], the fractional viability is, setting by setting: (2uM) 0.686; (10uM) 0.536.
On to `CNCC[C@@H](Oc1ccccc1C)c1ccccc1` [Atomoxetine HCl], for which the fractional viability amounted to 0.936 (2uM) and 0.922 (10uM).
In the same order, the values of `Cc1ccc(C(=O)C(C)CN2CCCCC2)cc1` (configuration not stated) [Tolperisone HCl] are 1.02 and 0.833.
For `C[C@@H](Oc1cc(-c2cnn(C3CCNCC3)c2)cnc1N)c1c(Cl)ccc(F)c1Cl` the same measures were 1.09 and 0.316.
Regarding `CCC(CC)(NC(=O)C(C)C)C(=O)N[C@@H](CCCN=C(N)N)C(=O)NC1(C(=O)NC(c2ccc(F)cc2)c2ccc(F)cc2)CCCC1`, the fractional viability came out at 0.765 (2uM) and 0.869 (10uM).
For `Cc1cc(Nc2ncc(Cl)c(Nc3ccccc3S(=O)(=O)C(C)C)n2)c(OC(C)C)cc1C1CCNCC1` the same measures were 0.376 and 0.0286.
The compound `O=C(O)Cc1cc(I)c(Oc2ccc(O)c(I)c2)c(I)c1` [Tiratricol] gave a fractional viability (2uM) of 1.02 and a fractional viability (10uM) of 0.798.
In the same order, the values of `CC[C@H](C)C(=O)O[C@H]1C[C@H](O)C=C2C=C[C@H](C)[C@H](CC[C@@H](O)C[C@@H](O)CC(=O)O)[C@H]21` [Pravastatin sodium] are 1.04 and 0.986.
In the same order, the values of `CC1=C(C(=O)O)N2C(=O)[C@@H](NC(=O)[C@H](N)c3ccccc3)[C@H]2SC1` [Cephalexin] are 0.947 and 0.968.
In the same order, the values of `Nc1ccccc1NC(=O)c1ccc(CNc2nccc(-c3cccnc3)n2)cc1` [Mocetinostat (MGCD0103)] are 0.403 and 0.191.
Take `COc1cc(-c2cc(-c3ccc(N4CCNCC4)cc3)cnc2C)cc(OC)c1OC`: the fractional viability amounted to 0.878 (2uM) and 0.835 (10uM).
For `Cc1ccc(S(=O)(=O)/C=C/C#N)cc1` the same measures were 0.121 and 0.09.
For `CC(C)(C)OC(=O)Nc1ccc(-c2cc(C(=O)NCCCCCCC(=O)NO)no2)cc1`, the fractional viability by setting is: (2uM) 0.367; (10uM) 0.171.
Regarding `COc1cc2c(cc1Cc1cccc(Cl)c1F)c(=O)c(C(=O)O)cn2[C@H](CO)C(C)C` [Elvitegravir (GS-9137, JTK-303)], the fractional viability reads like this: (2uM) 0.948; (10uM) 0.608.
With `COc1ccc2cc3[n+](cc2c1OC)CCc1cc2c(cc1-3)OCO2` [Berberine HCl], the fractional viability is, setting by setting: (2uM) 1.06; (10uM) 0.791.
On to `Cn1sc(=O)n(Cc2ccccc2)c1=O`, for which the fractional viability amounted to 0.609 (2uM) and 0.104 (10uM).
Take `Cc1nccn1CC1CCc2c(c3ccccc3n2C)C1=O` (configuration not stated) [Ondansetron HCl]: the fractional viability came to 1.01 (2uM) and 1.07 (10uM).
In the same order, the values of `CC(=O)NC[C@H]1CN(c2ccc(N3CCOCC3)c(F)c2)C(=O)O1` [Linezolid] are 1.47 and 1.41.
For `COc1ccc2c(c1)c(CC(=O)OCC(=O)O)c(C)n2C(=O)c1ccc(Cl)cc1` [Acemetacin] the same measures were 0.993 and 1.01.
Take `CN1CCN(c2ccc(Nc3cc(-c4cccc(-n5ccc6cc(C7CC7)cc(F)c6c5=O)c4CO)cn(C)c3=O)nc2)CC1`: the fractional viability is, setting by setting: (2uM) 0.945; (10uM) 0.216.
For `CN(C)C(=O)c1cc2cnc(Nc3ccc(N4CCNCC4)cn3)nc2n1C1CCCC1` the same measures were 0.841 and 0.632.
Consider `CC(=O)O[C@]1(C(C)=O)CC[C@H]2[C@@H]3C=C(C)C4=CC(=O)CC[C@]4(C)[C@H]3CC[C@@]21C` [Megestrol Acetate], for which the fractional viability runs as follows: (2uM) 1.24; (10uM) 1.02.
In the same order, the values of `C=C1[C@H](CO)[C@@H](O)C[C@@H]1n1cnc2c(=O)[nH]c(N)nc21` [Entecavir Hydrate] are 1.01 and 0.935.
In the same order, the values of `Nc1nnc(-c2cccc(Cl)c2Cl)c(N)n1` [Lamotrigine] are 1.1 and 0.883.
For `CCOC(=O)N[C@@H]1CC[C@@H]2[C@@H](C1)C[C@H]1C(=O)O[C@H](C)[C@H]1[C@H]2/C=C/c1ccc(-c2cccc(F)c2)cn1` [Vorapaxar] the same measures were 0.913 and 1.06.
